Reference: PubChem BioAssay AID1345082 (National Center for Advancing Translational Sciences (NCATS), 2018)
In all, about 94,000 compounds went through this assay and about 4,000 (4.3%) were called active. The inconclusive results got no clear call from the source; some entries with a clear call stand among them for comparison. Calls come from the whole dose curve; as a rule, active = well fitted inhibition curve with a large enough effect; inconclusive = small, poorly fitted or top-dose-only effect; inactive = no such curve, though single readings can be large or run the other way. Potencies of inconclusive entries are doubtful fits and often do not repeat.

Assay: Cytotoxic Profiling in NIH 3T3 Cell Line of Diverse Libraries Using Quantitative High-Throughput Screening; note: nearly all actives have a fitted effect of over 55% in size
Conditions: NIH 3T3 viability, CellTiter-Glo ATP luminescence, 48-72 h; activity change, negative = cytotoxicity: at 96.7 µM (top of the series) unless noted; series mostly up to 96.7 µM
Summary of the method: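 Mouse fibroblast NIH 3T3 cells, 400 per well, received compound via pintool and were incubated for 48 or 72 hr prior to CellTiter-Glo ATP luminescence measurement.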
% is set by controls: 0 for no effect and ±100 for the full control effect; potency is the fitted concentration of half-maximal effect; tags give direction and shape of the fitted curve.

Compound | Potency | activity change, negative = cytotoxicity | outcome
COc1ccc(CN2C(=O)CO[C@H]3CN(Cc4c[nH]c5ccccc45)C[C@H]32)cc1 | inconclusive: 100 µM [inhibitor, partial curve, poor fit] |  | 
CN1[C@@H](CCC(=O)NCc2ccc(F)cc2)CNC(=O)[C@@H]2[C@H]1CCN2Cc1cccc(Cl)c1 | inconclusive: 50.1 µM [inhibitor, partial curve, poor fit] |  | 
O=C1[C@@H]2C[C@@H](CN2Cc2ccc(F)cc2)Oc2ccccc2N1CC1CC1 | inconclusive: 112 µM [inhibitor, single point] |  | 
COc1ccc(OC)c(CN2CCNc3cnc(Nc4cccnc4)cc3C2)c1 | inconclusive: 39.8 µM [inhibitor, full curve] |  | 
COc1ccc(S(=O)(=O)N2CCOC[C@H](Oc3cccc(C)n3)C2)cc1 | inconclusive: 89.1 µM [inhibitor, partial curve, poor fit] |  | 
COc1cccc(CCC2CCCN(C(=O)c3ccoc3C)C2)c1 (stereo not drawn) | inconclusive: 44.7 µM [inhibitor, partial curve, poor fit] |  | 
O=C(NCCCc1ccccc1)C1CCN(C(=O)c2ccc(-c3cccs3)cc2)CC1 | inconclusive: 11.2 µM [inhibitor, full curve, poor fit] |  | 
COc1ccc(N2Cc3c(NCC4CCCCCC4)ncnc3N(C)CC2=O)cc1 | inconclusive: 44.7 µM [inhibitor, partial curve, poor fit] |  | 
CCCCCNC(=O)C1CCCN1Cc1ccc(-c2cccc(OC)c2)cc1 (stereo not drawn) | active: 39.8 µM |  | 
CC(C)CNC(=O)C(NC(=O)c1ccccc1)C1CCN(C(=O)c2ccc(F)cc2)CC1 (stereo not drawn) | inconclusive: 50.1 µM [inhibitor, single point] |  | 
Cc1ccc(OCC(=O)c2ccc3c(c2)N(CCCC(=O)N2CCOCC2)C(=O)CO3)cc1C |  | inactive: -15.2% | 
O=C1N(Cc2ccc(F)c(F)c2)CCCC12CCN(c1nc3ccccc3o1)C2 (stereo not drawn) | active: 39.8 µM |  | 
O=C1COc2ccc(OCc3ccccc3)nc2CN1Cc1ccc(F)cc1 | inconclusive: 79.4 µM [inhibitor, partial curve, poor fit] |  | 
COCCc1noc(C2Cc3ccccc3N2C(=O)CCc2cccc(OC)c2)n1 (stereo not drawn) | inconclusive: 50.1 µM [inhibitor, partial curve, poor fit] |  | 
C[C@]1(CO)C2CC[C@@H](O)[C@@H](CC(=O)NCc3ccccc3)[C@]2(C)CC[C@H]1OC(=O)NC1CCCCC1 (stereo partly drawn) | inconclusive: 89.1 µM [inhibitor, single point] |  | 
CC(=O)N1CCCN(c2ccnc3ccnn23)CC1 |  | inactive: -10.6% [at 138 µM] | 
CCC(=O)N1Cc2ccccc2CC2(CCCCN2Cc2ccncc2)C1 (stereo not drawn) |  | inactive: -19.7% | 
COc1cccc(CN(C)C2CCCc3ccccc32)c1 (stereo not drawn) | inconclusive: 100 µM [inhibitor, partial curve, poor fit] |  | 
FC(F)(F)c1cccc(CN2CCOC[C@H](Oc3cccnc3)C2)c1 | inconclusive: 79.4 µM [inhibitor, partial curve] |  | 
COc1cc(NC(=S)N[C@H]2CO[C@H]3[C@@H]2OC[C@H]3OC(=O)Nc2ccccc2)cc(OC)c1 |  | inactive: -18.3% | 
COc1ccc(F)cc1-c1ccc(C=O)cc1 | inconclusive: 112 µM [inhibitor, partial curve, poor fit] |  | 

Compound | Potency | activity change, negative = cytotoxicity | outcome
O=C1CO[C@H]2CCN(Cc3c[nH]c4ccccc34)CC[C@@H]2N1Cc1ccccc1 | active: 89.1 µM |  | 
N#Cc1ccccc1CN1CCCCC12Cc1ccccc1CNC2=O (stereo not drawn) | inconclusive: 79.4 µM [inhibitor, single point] |  | 
Cc1ccc(C2NC(=O)N(CC(=O)Nc3ccc(C(C)C)cc3)C3=C2C(=O)OC3)cc1 (stereo not drawn) | inconclusive: 25.1 µM [inhibitor, partial curve] |  | 
COc1ccc(Cl)cc1NC(=O)CCC1CCCN(Cc2ccc3c(c2)OCCO3)C1 (stereo not drawn) | inconclusive: 56.2 µM [inhibitor, partial curve, poor fit] |  | 
CCOC(=O)C1(Cc2ccccc2Cl)CCN(Cc2cccc3c2OCO3)CC1 | inconclusive: 50.1 µM [inhibitor, partial curve, poor fit] |  | 
Cc1nn(-c2ccccn2)c(C)c1[C@@H]1C=C[C@@H](NC(=O)NCc2ccccc2)C1 | inconclusive: 112 µM [inhibitor, single point] |  | 
Cc1cccc(C(=O)N[C@@H]2CN(c3ncccn3)C[C@H]2CO)n1 |  | inactive: -7.33% | 
O=S(=O)(c1cccc(F)c1)N1CC[C@@H]2COCCN(Cc3ccccc3)[C@@H]2C1 | inconclusive: 63.1 µM [inhibitor, partial curve, poor fit] |  | 
Cc1ccccc1CN1C[C@@H]2[C@H](C1)N(Cc1ccccc1)C(=O)C(C)(C)[S+]2(=O)[O-] | inconclusive: 112 µM [inhibitor, single point] |  | 
CC(C)C(=O)N1CCCC1c1nc(CCOCC2CC2)no1 (stereo not drawn) |  | inactive: -10.9% | 
O=C(NCc1cccnc1)[C@@H]1C[C@@H](c2ccc(F)cc2)N(Cc2ccccc2)C1 | inconclusive: 79.4 µM [inhibitor, partial curve] |  | 
COc1ccc(-n2nc3n(c2=O)CCN(C(=O)c2ccccc2F)C3)cc1 | inconclusive: 70.8 µM [inhibitor, single point] |  | 
Cc1cc(=O)n(CC(=O)Nc2ccccc2C)c(-c2ccc(Cl)cc2)n1 | active: 35.5 µM |  | 
CN(Cc1cccnc1)c1nc2c(c(=O)[nH]1)CCN(Cc1ccc(F)c(Cl)c1)CC2 | inconclusive: 31.6 µM [inhibitor, full curve, poor fit] |  | 
COc1ccc(CC(=O)N2CCC(Cc3nc(-c4ccc(OC)cc4)no3)CC2)cc1 | inconclusive: 31.6 µM [inhibitor, partial curve, poor fit] |  | 
O=C(c1cccc(O)c1)N1CCc2c(n(CCOc3ccccc3)n(-c3ccccc3)c2=O)C1 | active: 22.4 µM |  | 
COCC(=O)NC[C@H]1CCN(Cc2cccc(Cl)c2)C[C@H]1N(C)C |  | inactive: -15.7% | 
O=C(c1ccc(-n2ccnc2)cc1)N1CCC(c2[nH]ncc2-c2ccccc2)CC1 | inconclusive: 79.4 µM [inhibitor, partial curve, poor fit] |  | 
CC1(C)[C@H]2CC[C@@H](CNC(=O)c3cc(F)ccc3Br)[C@@H]1C2 | inconclusive: 89.1 µM [inhibitor, partial curve, poor fit] |  | 
CCC1(C(=O)NCc2ccc(C)o2)CCCCC(=O)N1 (stereo not drawn) |  | inactive: 4.57% | 
CCn1cc(S(=O)(=O)N2CCC(N3C(=O)[C@H](OC)[C@@H]3c3ccncc3)CC2)cn1 |  |  | inactive

Compound | Potency | activity change, negative = cytotoxicity | outcome
O=C(NCC1CCOCC1)[C@@H]1C[C@@H](c2ccc(F)cc2)N(CCOc2ccccc2)C1 | inconclusive: 112 µM [inhibitor, single point] |  | 
Cc1noc(C)c1-c1cc(-c2ccc3c(c2)C(=O)NC3)cn2cncc12 | active: 12.6 µM |  | 
COc1cccc(CCC(=O)NCCn2ccn3nc(-c4cccc(OC)c4)cc3c2=O)c1 | inconclusive: 44.7 µM [inhibitor, partial curve, poor fit] |  | 
Cc1cccc(CNC(=O)c2cc3c(N4CCSCC4)nc(C)cn3n2)c1 | inconclusive: 50.1 µM [inhibitor, partial curve, poor fit] |  | 
CC(C)NC(=O)N1CCN(c2cc(Cl)ncn2)C(=O)C1 | inconclusive: 28.2 µM [inhibitor, full curve, poor fit] |  | 
CCCn1c(C)cnc1CC1CCCN(S(=O)(=O)c2cc(OC)ccc2OC)C1 (stereo not drawn) | inconclusive: 79.4 µM [inhibitor, partial curve, poor fit] |  | 
COc1ccccc1CNC(=O)C1CN(C)C(=O)N1 (stereo not drawn) |  | inactive: -12.1% [at 138 µM] | 
O=C(CCC1CCN(C(=O)c2ccccc2)CC1)Nc1ccccc1 | inconclusive: 50.1 µM [inhibitor, partial curve, poor fit] |  | 
O=C(c1ccccn1)N1CCC(N2C(=O)C(OCC3CC3)C23CCOCC3)CC1 (stereo not drawn) |  | inactive: 2.99% | 
CCN1c2cc(C(=O)Nc3ccc(OC(F)(F)F)cc3)ccc2C(=O)N2CCCCC21 (stereo not drawn) | inconclusive: 63.1 µM [inhibitor, single point] |  | 
Cc1cc(C)cc(C(=O)N2CCC(Cc3nc(-c4ccccc4)no3)CC2)c1 | inconclusive: 44.7 µM [inhibitor, partial curve, poor fit] |  | 
C=CCOC(=O)C1=C(C)N=C2SC=C(CC(=O)NCC3CC3)N2C1c1cccc(OC)c1OC (stereo not drawn) |  | inactive: -21.9% | 
Fc1ccc(-c2ccc3ncc(Nc4ccccn4)n3n2)cc1 | inconclusive: 79.4 µM [inhibitor, partial curve] |  | 
O=C(c1nn(CC2CC2)c2c1CNCC2)N1CCC(Cc2ccccc2)CC1 | active: 39.8 µM |  | 
COc1ccc(C(=O)N[C@@H]2C=C[C@@H](c3c(C)nn(Cc4ccccc4)c3C)C2)cc1 | inconclusive: 89.1 µM [inhibitor, partial curve] |  | 
COc1ccc(C(=O)NCCc2noc(-c3cccnc3)n2)cn1 |  | inactive: -9.3% | 
COc1ccc(Cl)cc1NC(=O)CCC1CCCN(c2ccc(C(F)(F)F)cn2)C1 (stereo not drawn) | inconclusive: 35.5 µM [inhibitor, partial curve, poor fit] |  | 
O=C(NC1CCN(c2cc(-c3ccc(F)cc3)[nH]n2)C1)c1c[nH]c2ccccc12 (stereo not drawn) | active: 31.6 µM |  | 
O=C(Nc1ccc2c(c1)OCO2)c1cccc2c1CCN2C(=O)Nc1ccc(F)cc1 |  | inactive: -27.7% | 
Cn1ccc2c(C(=O)NCc3cccnc3)nc(-c3ccncc3)cc21 | inconclusive: 20 µM [inhibitor, full curve, poor fit] |  | 
O=C(NC[C@H]1O[C@H](Cc2cc(-c3ccc(F)cc3)on2)CC[C@@H]1O)c1ccc(F)cc1 | inconclusive: 126 µM [inhibitor, single point] |  | 
